Test results: PMC5148169, “Insights into Basal Signaling Regulation, Oligomerization, and Structural Organization of the Human G-Protein Coupled Receptor 83” (PLoS ONE, 2016)

Biological target: hGPR83_del17-60, N-terminal deletion variant of human GPR83, Flag-tagged (sandwich ELISA construct) (human, UniProt Q9NYM4 17-423, del17-60)
Assay: cell-based or functional assay

Sequence of UniProt Q9NYM4 (Q9NYM4 61-423, stated change not applied): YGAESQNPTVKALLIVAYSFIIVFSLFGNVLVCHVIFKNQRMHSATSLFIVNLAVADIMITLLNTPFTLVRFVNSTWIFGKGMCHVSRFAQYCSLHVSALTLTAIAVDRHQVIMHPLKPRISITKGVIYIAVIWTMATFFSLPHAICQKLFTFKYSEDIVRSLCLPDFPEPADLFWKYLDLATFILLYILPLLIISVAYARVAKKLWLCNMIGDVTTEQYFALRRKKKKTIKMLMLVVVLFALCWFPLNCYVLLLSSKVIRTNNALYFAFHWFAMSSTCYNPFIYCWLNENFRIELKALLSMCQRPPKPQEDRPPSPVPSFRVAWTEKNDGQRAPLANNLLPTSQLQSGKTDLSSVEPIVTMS

maximum cAMP accumulation after α-MSH on co-expression of hGPR83_del17-60 with hMC3R: ~1.5 fold
B1: human melanocortin-3 receptor, NHA-tagged (sandwich ELISA construct) (receptor, UniProt P41968 1-323, looked up)
chain: MNASCCLPSVQPTLPNGSEHLQAPFFSNQSSSAFCEQVFIKPEVFLSLGIVSLLENILVILAVVRNGNLHSPMYFFLCSLAVADMLVSVSNALETIMIAIVHSDYLTFEDQFIQHMDNIFDSMICISLVASICNLLAIAVDRYVTIFYALRYHSIMTVRKALTLIVAIWVCCGVCGVVFIVYSESKMVIVCLITMFFAMMLLMGTLYVHMFLFARLHVKRIAALPPADGVAPQQHSCMKGAVTITILLGVFIFCWAPFFLHLVLIITCPTNPYCICYTAHFNTYLVLIMCNSVIDPLIYAFRSLELRNTFREILCGCNGMNLG
